The record followed here is the RNAGym collection of RNA variant scans (doi:10.7554/elife.90254).

To fix the notation:
B1: LINE1-mini (parent)
chain: GGCAGAGCUCAACACAGCGUGGCAAAGUGGCUGUGGCUAGACUGCC

The source gives no read counts; variants with many changes may rest on few reads.

In the series the parent is B1. The series can be described thus: self-cleavage, relative activity (ratio to wild type); higher = more cleavage; in vitro, sequencing; the parent is a self-cleaving ribozyme.
Regarding G2A C8G C10A C31A G35C, the self-cleavage came to 0.02. Take A12U C15G C23U A26G G27U: the self-cleavage came out at 0.

Regarding G7U G19A G29A U38A, the self-cleavage was 0.01.

On to G1C G7U C10U U43A, for which the self-cleavage amounted to 0.01. On to G17A C23U C46A, for which the self-cleavage came out at 0.06.

On to G1A G7C C10G A11C C37U C45U C46U, for which the self-cleavage is 0.02.

Take G7U G30A C37U: the self-cleavage was 0.03.

As to C13G G19U A24C, the self-cleavage worked out at 0.48.

On to G1U C13A U20A G22C, for which the self-cleavage was 0.01. Take A14U C23A G40A: the self-cleavage was found to be 0.08. Consider G21U G29U G33U, for which the self-cleavage was 0.25. Turning to G29A G33A C46U, the self-cleavage was found to be 0.04. Turning to G21U C23U G35U G40U, the self-cleavage came to 0.16. Take A12C G19A U20A U28G A41C C42G: the self-cleavage worked out at 0. With G2C C18G A25C G30A C31U G33C C45G, the self-cleavage turned out to be 0.05.

With C3G U9G C23U, the self-cleavage stood at 0.71. Consider C10U A16U C31G U32C, for which the self-cleavage was 0.03. In the case of G2A U9G G17C C18G A25U C42U, the self-cleavage amounted to 0.21. As for C3A A11U C13G A14U U34G, the self-cleavage was determined as 0.01. In the case of G2C A11U G22A G27C U32A, the self-cleavage stood at 0.01. Consider G2U G5U G29C, for which the self-cleavage is 0.02. For C18A G19U A39U, the self-cleavage was 0.13.

Consider C3U C10U C13U, for which the self-cleavage was 0.08. Turning to C15A C42U C46A, the self-cleavage stood at 0.02. Turning to C8A C10G G29C C46U, the self-cleavage was 0. Turning to A6C C37A C45A, the self-cleavage turned out to be 0.39. Take A11U G35C A41C: the self-cleavage stood at 0.01. For C18A U20C G22U G36U, the self-cleavage is 0.05. For the variant G27A G29A G36A, the self-cleavage was 0.09. For the variant G2A A14G G30U, the self-cleavage came to 0.13. Regarding U32A G40C G44A C46U, the self-cleavage was determined as 0.02. With C18A U20G G22C G35C, the self-cleavage was 0.05. G7U C10U A14U C18U U38C: the self-cleavage stood at 0.11. Turning to G7A A24G C31U, the self-cleavage turned out to be 0.04.

For G5A A6C U20C, the self-cleavage was found to be 0.26. G7A C13U C31U G40C: the self-cleavage is 0.27. With G2A A11C A39U G44U, the self-cleavage was found to be 0.12. On to G30A C31A U34A, for which the self-cleavage stood at 0.05. As to G5A U9C G19C A41C U43G, the self-cleavage stood at 0. In the case of A14U G27A U28A G30U it was 0.17; in that of A4G C13G U28C G30U G40A C46G, 0.03. In the case of G2U C10G A14U A24U C31U, the self-cleavage was 0. G1U G22U U38C G40A G44C: the self-cleavage was 0.02. In the case of A16C G17A G35A, the self-cleavage amounted to 0.01.

A16U U34A G35C A39C A41C: the self-cleavage worked out at 0.01. Turning to G27U G29A U34C, the self-cleavage worked out at 0.01. With G1A C3U G5A A12G A25G, the self-cleavage is 0.08. To A6U C8G A39U G44U belongs 0.01; to A11C G36C G44C, 0.01; to G7U U9C G40A C45U, 0.06. Turning to C8A A12C A24G C45A, the self-cleavage came to 0.04. On to U34A G35C U38C, for which the self-cleavage amounted to 0.01.

Turning to G21C C23G C37A, the self-cleavage worked out at 0.01. Take A16G C18G C37A A39U: the self-cleavage was 0.07. Consider U9G C10G U32C, for which the self-cleavage was determined as 0.01. To G7U C15A U34A belongs 0.1. As for U9C A14U G27U C37U, the self-cleavage was found to be 0.01.

C3A G19C G36U C45U: the self-cleavage is 0.34. On to U9A A12G G33U, for which the self-cleavage worked out at 0.01.

For C13A G21A A26U G30U C45G, the self-cleavage came to 0.07. On to C10U U20A C31G U34A, for which the self-cleavage was determined as 0.05. To G5A A26C U28G A41U belongs 0.15; to G1U A14U A25G, 0.01; to U9A C15U G21C G29U U43G, 0.05.

Turning to G2U A4G C42U, the self-cleavage is 0.18. With G7A G17U G19U G36C, the self-cleavage came out at 0.24. In the case of C10A C23A U28C, the self-cleavage was determined as 0.03. In the case of G5U C13U U28A A41C U43C it was 0.02; in that of A24U U32C C37A, 0.16.

Consider A6U A12U G30A C31U C45U, for which the self-cleavage turned out to be 0.01.

Take C15A G30A C37G G44U: the self-cleavage stood at 0.03. Take C15G G33A G35A C45G: the self-cleavage was 0.02. For the variant A6U C23G G35A G44U, the self-cleavage worked out at 0.05. Take G7A C10U G21A C23G C45U: the self-cleavage worked out at 0.03. With G5C A12G U32A A41U, the self-cleavage worked out at 0.12. In the case of C8U U9A A26C it was 0.15; in that of A4U A12U G17U U32A, 0.02; in that of A11C G19U A25U, 0.02. Consider G1A C10A C13U U32C, for which the self-cleavage worked out at 0.08. In the case of G19C G21A G22C, the self-cleavage came to 0.13.

Turning to A6U G21A A24C G30A G33A G44C, the self-cleavage was determined as 0.03. To A12G A16C C42A belongs 0.08; to A6G C13U C23U, 0.05.

As for A4C G5A G7A A12U G19A U32G A39G, the self-cleavage was found to be 0.24.

With C10U A14C C15G C45U, the self-cleavage turned out to be 0.01.

With A16G G22U G27C U28C C37G G40U, the self-cleavage was 0.01.

A4C C8U A11G G21A C23G: the self-cleavage was found to be 0.03.

In the case of A14C G22A G27C A39U, the self-cleavage was found to be 0.02. For A6G A14G C31A G35A U38C C42A, the self-cleavage was 0.01. For C15U U32A U34G C46U, the self-cleavage is 0.01. Turning to C3A A6U C10G A12C C31A U34G A39C U43C, the self-cleavage came out at 0. Take U9C C13A G29U: the self-cleavage came out at 0.03. G17U C18U A25C: the self-cleavage stood at 0.07. Regarding G1A G7A A25U G44C, the self-cleavage was found to be 0.26. To U9C C13A G21U G35A C37U belongs 0.01.

As for U9G A25G A41C C46A, the self-cleavage turned out to be 0. In the case of G5C G7A C37A it was 0.11; in that of A14U A16C G19U U32C G35A, 0.02. On to C8A C10A G33U A41C, for which the self-cleavage amounted to 0.02.

As to A16C A25U U32A G44C, the self-cleavage came to 0.02. For the variant G5C G22C A39C, the self-cleavage was determined as 0.01. Turning to G2U A6C C15U U32C, the self-cleavage came to 0.02. As to G35U G40U C46G, the self-cleavage worked out at 0.09. As to C3A C13G A14G G17U, the self-cleavage was 0.26.

Consider A11C G22A G30C G35U C42G, for which the self-cleavage is 0.02.

As to A6C G7C G17C, the self-cleavage is 0.12. To G5C G7A C13G G21A G30C belongs 0.08; to A12U A16C G17A G36U, 0.03. C31A C37U C45A: the self-cleavage came out at 0.04. G22U G30U C31G A41G: the self-cleavage turned out to be 0.33. To G2C G17A G27A belongs 0.15; to G2A C15U U38A, 0.28. To C8U C13G C15G G33U G44U belongs 0.09; to G7C A24C G29U A41C, 0.21; to G7A G17U G30C G35U G36U U38A, 0.03. Regarding G19U G30A C42A, the self-cleavage came to 0.02. Consider A12C C13A G17A, for which the self-cleavage was 0.06. With A4U C23A U28A, the self-cleavage is 0.19. Take G5A A6C G21C: the self-cleavage turned out to be 0.05.

With G2C A11U A14C C23G A39G A41G, the self-cleavage was found to be 0. With C18U G36C C37U, the self-cleavage was 0.01. Regarding C10G A14C C46A, the self-cleavage came out at 0.02. G5U U32C G33C: the self-cleavage was determined as 0.03.

Take C18A G40C C45A: the self-cleavage was determined as 0.01. Turning to G2C G21A U32G G33U U43G G44C, the self-cleavage is 0.01. For the variant A6G C10U C18G A24U U32G, the self-cleavage stood at 0.02. In the case of A4C G5U A6G U20G it was 0.03; in that of G17A C31U C46G, 0.68; in that of G2U C8A G30C G40U, 0.01.

As for G22C U32G C46A, the self-cleavage stood at 0.04. For C3G A12G C13A, the self-cleavage stood at 0.08. For the variant G1U G2C U38C, the self-cleavage was determined as 0.01.

For A26G G29U U38A, the self-cleavage worked out at 0.96. Regarding G7U G17C C31G U43G, the self-cleavage is 0.07.

On to G5U G29C G40A, for which the self-cleavage stood at 0.02. For the variant G2U C3G C31A, the self-cleavage was found to be 0.07.

Consider G7A U9A U34G, for which the self-cleavage amounted to 0.39. To A14C C18A U20C C45A C46U belongs 0.04.

Turning to G5C A11U A25C A41U, the self-cleavage is 0.03. In the case of G1C C15U A25U G40U it was 0.02. For the variant G1C C10A G17C C42U, the self-cleavage was determined as 0.02. As for C10A C31U A41U, the self-cleavage came out at 0.02. G2A A6U C31A C46A: the self-cleavage was 0.13. In the case of A24G C31A U32C it was 0. With G1C A4C C18A C23U A39C, the self-cleavage is 0.02.

As to C3A U38A C42U, the self-cleavage amounted to 0.04. To G1U A6C C23U A24U U34C U38G belongs 0; to G5U A14U A16G U20C G29U, 0.03; to C3A G5U C10A U38C, 0.05.

As for C13U G17U G22A A26U, the self-cleavage was 0.06. For the variant G1C A24U G27A, the self-cleavage amounted to 0.2. In the case of G22A G33C A41G it was 0.03; in that of G1U G2A C18G A41U, 0.15; in that of A12U U32C C45U, 0.07. Consider G5A A25U G29A U34A, for which the self-cleavage turned out to be 0.1. For A6G C10U G35U, the self-cleavage came out at 0.05.

For the variant G1U A14U U28C U43C, the self-cleavage was found to be 0.01. With A4U G17U G36A, the self-cleavage was found to be 0.04. As to C8U A24C C37U, the self-cleavage was 0.22. As for G1C G5U U9G, the self-cleavage came to 0.01. Regarding G17A G21U G44A, the self-cleavage was 0.03.

For G5U G36C A39G G44C, the self-cleavage was 0.03. Take A4C G7U A41U C46U: the self-cleavage is 0.31. With U9G G44A C45U, the self-cleavage was determined as 0.25.

Turning to G5U G19A U20G G30U, the self-cleavage stood at 0.05. In the case of A4G A14C C15U G30A it was 0.17; in that of C15A A24C G40A U43G, 0.04.
